Test results reported in PMC4336329 (PLoS ONE, 2015).
Among all 310,000 compounds or so, about 14,000 (4.5%) showed an effect of 50% or more. Effects have a minus sign here. The list shows a part of the results.

The molecules below were run against human ether-à-go-go-related gene (hERG) potassium channel (human, UniProt Q12809) (assay: primary screen, population patch clamp on CHO cells stably expressing hERG).
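Note: peak tail current of the secondary pulse compared with the same well before compound.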

Chain of human ether-à-go-go-related gene (hERG) potassium channel (Q12809 whole entry, looked up): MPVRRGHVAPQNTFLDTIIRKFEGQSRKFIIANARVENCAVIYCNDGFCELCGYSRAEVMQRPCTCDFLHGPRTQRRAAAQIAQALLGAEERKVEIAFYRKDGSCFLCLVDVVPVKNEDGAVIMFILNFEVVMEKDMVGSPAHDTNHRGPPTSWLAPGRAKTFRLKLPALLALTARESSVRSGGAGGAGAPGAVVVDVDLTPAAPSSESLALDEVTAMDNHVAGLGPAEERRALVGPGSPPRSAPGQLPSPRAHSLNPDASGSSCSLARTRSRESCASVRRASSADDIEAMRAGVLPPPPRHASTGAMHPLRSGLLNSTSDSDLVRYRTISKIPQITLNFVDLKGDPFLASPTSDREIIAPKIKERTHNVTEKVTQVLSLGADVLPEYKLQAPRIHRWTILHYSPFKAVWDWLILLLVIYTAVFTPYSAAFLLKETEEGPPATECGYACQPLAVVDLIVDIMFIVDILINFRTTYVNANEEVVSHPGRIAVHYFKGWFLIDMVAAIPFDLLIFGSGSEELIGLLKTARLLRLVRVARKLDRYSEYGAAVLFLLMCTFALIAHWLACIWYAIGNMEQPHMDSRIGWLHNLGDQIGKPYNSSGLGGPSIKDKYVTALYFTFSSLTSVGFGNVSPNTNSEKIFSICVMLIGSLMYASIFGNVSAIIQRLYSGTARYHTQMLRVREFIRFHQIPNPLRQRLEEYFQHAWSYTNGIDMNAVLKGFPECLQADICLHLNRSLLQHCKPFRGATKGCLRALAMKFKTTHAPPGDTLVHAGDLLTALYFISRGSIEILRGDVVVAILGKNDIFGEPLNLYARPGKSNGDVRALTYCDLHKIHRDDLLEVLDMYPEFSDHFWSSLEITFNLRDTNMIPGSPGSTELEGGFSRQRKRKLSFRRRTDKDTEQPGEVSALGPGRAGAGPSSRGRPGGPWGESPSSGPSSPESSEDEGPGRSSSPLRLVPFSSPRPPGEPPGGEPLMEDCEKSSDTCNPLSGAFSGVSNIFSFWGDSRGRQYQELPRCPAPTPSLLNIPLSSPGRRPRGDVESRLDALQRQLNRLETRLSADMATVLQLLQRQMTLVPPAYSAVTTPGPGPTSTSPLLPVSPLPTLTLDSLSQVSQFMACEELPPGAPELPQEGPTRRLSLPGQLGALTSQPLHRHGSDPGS

Compound | hERG current change (%, negative = inhibition) at 10uM [%]
O=C(CC(=O)c1ccccc1)Nc1cccnc1Cl | -4.72
O=C(/C(C=Nc1cc2c(oc1=O)CCCC2=O)=C(\O)c1ccccc1)c1ccccc1 | 19.6
COc1ccc(C(CC(=O)NCc2ccco2)c2ccc(F)cc2)cc1 (stereo not drawn) | -22.4
O=c1c(-c2nc3ccccc3s2)cccn1Cc1ccccc1 | -0.382
CCc1ccccc1NC(=O)N1C2CCCC1CC(NC(=O)C(C)(C)C)C2 (stereo not drawn) | 5.8
Cc1cc(-n2nc(C)cc2C)n2ncc(-c3ccccc3)c2n1 | 16.2
CCCCN(CCCNc1ncnc2nc[nH]c12)c1ccccc1 | -7.39
Cc1ccc(SCC(=O)NCCc2ccccc2)cc1 | 15.3
Cc1cc(C)c2oc(C(=O)N(Cc3ccccc3)c3ccccn3)cc(=O)c2c1 | -10.1
CN(CP(=O)(O)C(O)c1ccccc1)S(C)(=O)=O (stereo not drawn) | 2.76
CCN(CC(=O)NC(=O)NC1CCCCC1)Cc1nc2ccccc2c(=O)[nH]1 | -8.1
COc1ccc(C(=O)NC2CCN(C(=S)Nc3ccc(C)c(C)c3)CC2)cc1 | 23.5
COc1ccc(/C=C(\NC(=O)c2ccccc2)C(=O)N/N=C/c2ccncc2)cc1 | 7.25
CCN(CC)c1ccc(/C=N/N2CCN(Cc3ccccc3Cl)CC2)cc1 | 16.9
Cc1cc(S(=O)(=O)NCCCn2ccnc2)c(C)cc1Cl | -20.1
Cc1cccc(C(=O)OCC(=O)NCC(C)C)c1O | 21.1
COC(=O)C1=C(C(=O)OC)[C@@H]2N(C)c3ccccc3[C@@]23C[C@@H](C(=O)OC)N(C(=O)c2ccco2)C3=N1 | -13.9
COC(=O)[C@@H](NCc1cccc(CN[C@H](C(=O)OC)c2ccccc2)c1)c1ccccc1 | -9.1
NCCNC[C@@H]1COC2(CCCCCCCCCCC2)O1 | 5.63

Compound | hERG current change (%, negative = inhibition) at 10uM [%]
CCN(C(=O)c1ccc(NC(=O)Cc2ccccc2)cc1)c1ccccc1 | -28.6
COc1cccc(-n2nnnc2SCC(=O)NCCc2ccc(OC)c(OC)c2)c1 | 1.06
Cc1ccc(CO/N=C\Cc2snc(Sc3ncc(C(F)(F)F)cc3Cl)c2C#N)cc1 | 11.3
COC(=O)Cn1cnc2scc(-c3ccc(C)c(C)c3)c2c1=O | 9.7
CCc1cc2c(SCC(=O)c3ccccc3)ncnc2s1 | 7.93
C=CCn1c(SCc2c(C)noc2C)nc2cc(C(=O)O)ccc2c1=O | -9.92
O=C1CCC(C(=O)Nc2cccc(Br)c2)N1 (stereo not drawn) | 7.12
Cc1ccc2c(c1)C(O)(CC(=O)c1ccc(C)s1)C(=O)N2 (stereo not drawn) | 21.4
CS(=O)(=O)N1CCN(CCN2C(=O)c3cccc4cccc(c34)C2=O)CC1 | 7.17
COc1ccc(C2(C(=O)N3CCCC3)CCOCC2)cc1OC | 4
CC(C)CNS(=O)(=O)c1ccc(CCC(=O)N2CCN(Cc3ccc4c(c3)OCO4)CC2)cc1 | -54.4
COc1ccccc1S(=O)(=O)Cc1ccc(C(=O)NCC2CCCO2)o1 (stereo not drawn) | 10
COc1ccc(OCCN2CCN(S(=O)(=O)c3ccccc3C(F)(F)F)CC2)cc1 | -12.6
COc1ccc(CCNC(=O)CCS(=O)(=O)Cc2ccccc2C)cc1OC | 9.44
CON(C)S(=O)(=O)c1cccc(C(=O)Oc2ccc(N(C)S(=O)(=O)c3ccccc3)cc2)c1 | 21.3
Cc1ccc(C(=O)O)cc1NCc1ccncc1 | 18.7
CN1CCN(C(=O)c2ccc(-n3cccc3)cc2)CC1 | -20.3
O=C1/C(=C/c2cccnc2)SC(=S)N1NS(=O)(=O)c1ccccc1 | 15
CNC(=O)CSc1nnc(-c2ccco2)n1-c1cccc(OC)c1 | -0.723

Compound | hERG current change (%, negative = inhibition) at 10uM [%]
CCOC(=O)CCn1c(=S)n(CCC(=O)OCC)c2ccccc21 | -40.6
Cc1ccc(S(=O)(=O)N2CCCCC2)cc1NC(=O)CSCC(=O)O | 18.3
NC(=S)Nc1c(Cl)cccc1Cl | 14.1
COc1ccc(C(=O)NC2CCCCC2)cc1S(=O)(=O)N1CCCC1 | -18.1
COc1cc(OC)cc(C(=O)Nc2nc(CC(=O)NCc3ccccc3OC)cs2)c1 | -8.49
CC(O)c1cccc(NC(=O)C2CCCCC2)c1 (stereo not drawn) | 31.1
COc1ccc(CCNC(=O)c2cc3c(=O)n4ccccc4nc3n(C3CCCCC3)c2=N)cc1OC | -76.6
Cc1ccc(NC(=O)CN2C(=O)COc3ccc(S(=O)(=O)N4CCCC4)cc32)cc1C | 3.44
CCOc1ccc2nc3c(cc2c1)CN(CCOC)C(=NC)S3.Cl | 11.2
CC1C=CCC2C(=O)N(c3cccc(C(=O)N4CCN(c5ccc(F)cc5)CC4)c3)C(=O)C12 (stereo not drawn) | -20.1
Cc1ccc(C(=O)NNS(=O)(=O)c2ccc(F)cc2)cc1 | 7.52
Cc1ccsc1C(=O)NCCc1c[nH]c2ccccc12 | 7.32
CSc1ccccc1C(=O)Nc1cccc(N(C)S(C)(=O)=O)c1 | -7.06
CC(C)(C)OC(=O)CN1C(=O)NC2(CCCc3ccccc32)C1=O (stereo not drawn) | 8.73
CC(C)C(=O)Nc1ccc(-c2nc3cccnc3o2)cc1 | 9.76
Cc1cc(C)cc(N(CCC(=O)O)S(=O)(=O)c2ccc(Cl)cc2)c1 | -17.4
COc1ccccc1C(c1nnnn1C(C)(C)C)N1CCCCCC1 (stereo not drawn) | -20.9
O=C(O)CC(Cc1ccc(Cl)cc1)C(=O)Nc1ccccc1 (stereo not drawn) | 11.8
O=C(NCCCCc1ccccc1)c1cccc(Br)c1 | -3.79
